Measurements from article PMC4336329 (PLoS ONE, 2015).
In all, about 310,000 compounds went through this assay and about 2,200 (0.71%) showed an effect of 50% or more. Effects have a minus sign here. Some of the results follow.

Each compound was assayed against human ether-à-go-go-related gene (hERG) potassium channel (human, UniProt Q12809) (assay: primary screen, population patch clamp on CHO cells stably expressing hERG).
Chain of human ether-à-go-go-related gene (hERG) potassium channel (Q12809 whole entry, looked up): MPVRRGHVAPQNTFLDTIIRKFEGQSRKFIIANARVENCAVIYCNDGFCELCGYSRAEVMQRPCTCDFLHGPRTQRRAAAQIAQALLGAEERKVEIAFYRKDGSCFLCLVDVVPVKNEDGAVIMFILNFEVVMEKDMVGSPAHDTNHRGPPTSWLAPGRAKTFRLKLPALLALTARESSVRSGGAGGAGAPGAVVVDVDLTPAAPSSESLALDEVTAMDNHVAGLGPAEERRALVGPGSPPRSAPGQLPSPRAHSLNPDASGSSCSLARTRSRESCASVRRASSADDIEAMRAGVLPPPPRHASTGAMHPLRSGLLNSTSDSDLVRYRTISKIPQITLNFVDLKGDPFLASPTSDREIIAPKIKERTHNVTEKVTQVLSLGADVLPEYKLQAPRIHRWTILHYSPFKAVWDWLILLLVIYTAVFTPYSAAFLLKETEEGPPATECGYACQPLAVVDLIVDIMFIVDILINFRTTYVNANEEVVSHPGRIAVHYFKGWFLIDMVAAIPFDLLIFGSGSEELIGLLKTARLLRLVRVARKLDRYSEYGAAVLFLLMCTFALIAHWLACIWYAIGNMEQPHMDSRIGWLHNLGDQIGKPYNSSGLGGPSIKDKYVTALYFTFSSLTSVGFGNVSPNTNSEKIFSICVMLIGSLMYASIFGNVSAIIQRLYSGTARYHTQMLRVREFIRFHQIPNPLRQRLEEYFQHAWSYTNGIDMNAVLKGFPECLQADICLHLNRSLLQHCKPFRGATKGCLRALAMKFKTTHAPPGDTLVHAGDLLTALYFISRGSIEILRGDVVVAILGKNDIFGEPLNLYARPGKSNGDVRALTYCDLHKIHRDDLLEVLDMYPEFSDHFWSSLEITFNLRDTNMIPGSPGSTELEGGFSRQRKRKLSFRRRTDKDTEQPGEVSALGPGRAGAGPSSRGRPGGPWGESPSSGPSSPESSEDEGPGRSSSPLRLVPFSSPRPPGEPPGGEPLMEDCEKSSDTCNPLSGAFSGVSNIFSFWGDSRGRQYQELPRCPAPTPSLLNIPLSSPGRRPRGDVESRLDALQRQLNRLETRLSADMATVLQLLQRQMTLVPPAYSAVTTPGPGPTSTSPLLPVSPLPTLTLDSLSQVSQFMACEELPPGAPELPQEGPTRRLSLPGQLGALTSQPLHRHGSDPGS

Row | SMILES | hERG current change (%, negative = inhibition) at 1uM
1 | Cc1cccc2cc(-c3nc4c(C)cccn4c3NCc3ccco3)c(=O)[nH]c12 | 2.58%
2 | Cc1cccc(N2CCN(C(=O)c3ccoc3C)CC2)c1C | -0.478%
3 | Cc1c(Cl)cccc1NC(=S)N1CCC(N(C)CC2CCCO2)CC1 (stereo not drawn) | 11.6%
4 | Cc1ccc(S(=O)(=O)N2CCOCC2)cc1C(=O)OCCOc1cccc(Cl)c1 | 11.6%
5 | COc1ccc(CNC(=O)CN2C(=O)c3ccc([N+](=O)[O-])cc3C2=O)cc1 | 12%
6 | Cc1ccc(CC(=O)Nc2nncs2)cc1 | 17.2%
7 | COCCNS(=O)(=O)c1cccn1-c1ncc(C(F)(F)F)cc1Cl | 10.7%
8 | O=C(Oc1cccc(C(=S)N2CCOCC2)c1)c1ccccc1 | 17.9%
9 | Cc1ccc(OCC(=O)NC2CC(C)(C)NC(C)(C)C2)cc1C | 12.4%
10 | O=C(CCc1ccccc1)Nc1ccc2c(c1)C(=O)OC2 | 12.2%
11 | CCOC(=O)c1c(NC(=O)CC2Nc3ccccc3NC2=O)sc(C)c1C (stereo not drawn) | 15.2%
12 | CC(=O)c1ccc2c(c1)C1C=CCC1C(c1ccncc1)N2 (stereo not drawn) | -4.24%
13 | CC(C(=O)Nc1cccc([N+](=O)[O-])c1)n1nnc2ccccc21 (stereo not drawn) | -12.1%
14 | COc1cccc(OC)c1C(=O)N1CCN(Cc2ccccc2C(F)(F)F)CC1.O=C(O)C(=O)O | 8.04%
15 | C[C@@H]1CCC(=O)N(C[C@@H](C)CSc2ccccc2)CC1 | -7.31%
16 | NC(=O)c1cc2cc([N+](=O)[O-])ccc2oc1=O | 2.22%
17 | Nc1cc(C(=O)c2ccccc2)ccc1[N+](=O)[O-] | 14.9%
18 | CCOC(=O)c1ccc(CNC(=O)Cn2nnc(-c3ccccc3F)n2)o1 | -8.69%
19 | O=C(Nc1ccc(F)cc1F)N1CCN(CCc2ccccc2)CC1 | 8.82%

Row | SMILES | hERG current change (%, negative = inhibition) at 1uM
20 | CC(NC(=O)C(C)N1CCN(Cc2ccccc2)CC1)c1ccccc1 (stereo not drawn) | 20%
21 | COc1ccc(C(=O)NCc2nnc(SCC(=O)N3CCOCC3)o2)cc1OC | 14.1%
22 | O=C(NCc1cccs1)[C@@H]1CSC2c3ccccc3C(=O)N21 (stereo partly drawn) | 7.24%
23 | CN1CCN(c2nc(Nc3ccccc3)nc(N)c2[N+](=O)[O-])CC1 | -10.2%
24 | Cc1ccc(CSc2ncnc3c2cnn3Cc2ccccc2)cc1 | -6.35%
25 | Cc1ccc(S(=O)(=O)NCCc2ccncc2)cc1C | 14%
26 | COC(=O)c1ccc(S(=O)(=O)N2CCCCCC2)cc1 | 6%
27 | CCCc1nc2sc(C(=O)OCC)c(N)c2c2c1COC(C)(C)C2 | 2.39%
28 | O=C(O)COCC(=O)Nc1ccc2c(c1)CCC2 | 14.3%
29 | CCOCCCNC1=C(Cl)C(=O)c2ccccc2C1=O | 7.84%
30 | COc1ccc(S(=O)(=O)NCC2CCCO2)cc1C(=O)O (stereo not drawn) | 18.5%
31 | O=C(c1ccccc1)N1N=C(c2ccco2)CC1c1cccs1 (stereo not drawn) | 8.01%
32 | Cc1cccc(C)c1NC(=O)C1CC2CCC1C2 (stereo not drawn) | 6.99%
33 | CN(C)C(=O)[C@H]1C[C@H]1[C@@H](O)[C@H](CO)NC(=O)[C@H](Cc1ccccc1)NC(=O)OC(C)(C)C | 7.02%
34 | O=C(NCc1cccc(Cl)c1)N1CCN(S(=O)(=O)c2ccccc2F)CC1 | 3.82%
35 | CC(=O)Nc1ccc(S(=O)(=O)NCc2nnnn2-c2ccc(F)cc2)cc1 | 10.3%
36 | Cc1ccc(C(=O)COC(=O)CCC(=O)NC2CCCCC2)cc1C | 16%
37 | Fc1ccccc1CNc1cc(Cl)cc(Cl)c1 | 11.7%
38 | Cc1ccc(-n2c(=O)[nH]cc(C(=O)Nc3ccc4c(c3)OCCO4)c2=O)cc1C | 8.08%

Row | SMILES | hERG current change (%, negative = inhibition) at 1uM
39 | O=C(NC1CCCCC1)C12CC3CC(CC(Cl)(C3)C1)C2 | 16.6%
40 | CC1(C(=O)N(CC(=O)NC2CCCC2)Cc2ccccc2)CC(=O)N=C2C=CC=CN21 (stereo not drawn) | 11.6%
41 | COc1ccc(NC(=O)N(CCO)Cc2cc3c(C)cc(C)cc3[nH]c2=O)cc1 | 4.72%
42 | COC(=O)c1ccc(NC(=O)CN(c2ccc(C)cc2)S(=O)(=O)c2c(C)nn(C)c2C)cc1 | 13.4%
43 | CCOC(=O)c1sc2ncnc(N3CCN(C(=O)OCC)CC3)c2c1C | -6%
44 | CN(CC(=O)Nc1ccc(Cl)cc1)C(=O)c1ccc(COc2ccccc2)cc1 | 8.06%
45 | COc1ccc(OC)c(C2(O)CSC(=Nc3cccnc3)N2Cc2ccco2)c1 (stereo not drawn) | 3.79%
46 | Cc1ccc2c(n1)CC(C)(C)CC2=O | 8.51%
47 | Cc1cccc(Cn2c(SCCN3CCCCC3)nc3c2c(=O)[nH]c(=O)n3C)c1 | -80.7%
48 | O=[N+]([O-])/C=C/c1cn(Cc2ccc(Cl)cc2)c2ccccc12 | 12.7%
49 | CC(Oc1coc(CN2CCN(C(=O)c3ccco3)CC2)cc1=O)c1ccccc1 (stereo not drawn) | 11.8%
50 | CCOc1ccc(OCCOCCNCCOC)cc1 | 10.1%
51 | O=C(OCc1ccc(Br)cc1)c1cccnc1 | 10.4%
52 | CCSc1nnc([C@@H](N)Cc2ccccc2)o1.Cl | 6.48%
53 | C=CCOC(=O)C1=C[C@H](c2cn(C(C)=O)c3ccccc23)[C@@H](CCCO)[C@H](OCC)O1 | -0.212%
54 | CC(Sc1nc2cc(Cl)ccc2s1)C(=O)Nc1ccc2c(c1)OCO2 (stereo not drawn) | 9.42%
55 | CCOc1ccccc1C1CC(c2cccc(NS(C)(=O)=O)c2)=NN1C(=O)c1ccccc1 (stereo not drawn) | -14.9%
56 | O=C(NNC(=O)c1ccccc1[N+](=O)[O-])Nc1ccccc1C(F)(F)F | 15.4%
57 | Cc1noc(C)c1C(=O)Nc1ccc(S(=O)(=O)N2CCCCC2)cc1 | 10.5%
